From the supplement of paper PMC11417369
± gives the standard deviation of the averaged measurements. Some of the results follow.

Test system: PfAP2-I AP2 domain 3 (GST-tagged)
Test: gcPBM binding intensity (ln(normalized median fluorescence intensity)); higher = stronger DNA binding
Outline: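 An Agilent 4 × 180k array carrying primer-extended double-stranded 36-bp intergenic genomic probes and negative controls received GST-tagged P. falciparum DNA-binding domains expressed in E. coli, about 25 μg on average, for 1 h. The binding buffer contained 1× PBS, 1% milk, 0.2 mg/ml BSA, 0.5% salmon testes DNA and 0.03% Triton X-100. Binding intensity is the top Masliner-normalised natural-log median intensity across replicate spots of either probe orientation, read after Alexa488 anti-GST antibody staining and a 488 nm scan.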

| Sequence | gcPBM binding intensity (ln) |
| --- | --- |
| ATAAAAATGGTGTTAACACACACATATATATATATA [CACACA_site8089] | 9.51 ± 0.22 |
| TTATTTAAATATTGATGTACTCTCCTTATTATAATA [XGTACX_site1240] | 7.89 ± 0.5 |
| GGTAATTATTTTGGTTGTACTCAAATATATAATATT [XGTACX_site291] | 8.13 ± 0.33 |
| ATGTCATAAATGTACGCACACATACATAAACATATA [CACACA_site4530] | 8.52 ± 0.14 |
| TTCATTTTAATTTCCAGTACACATATATATACATAT [XGTACX_site558] | 8.11 ± 0.27 |
| ATTTATTTCTATAATACACACAAATATCTTAATTAA [CACACA_site7801] | 7.71 ± 0.44 |
| ATTATATTTATGTTGGTGCATTATACATGAAATTTA | 11.5 ± 0.43 |
| AATATAATACAATATTGTACATAATATAAATTAAAA [XGTACX_site4064] | 7.59 ± 0.44 |
| TTATACTGTTTCAGAAAAATAAAGAATGAAAGTATT [XGTACX_negctrl_site230] | 8.07 ± 0.49 |
| TTTTTATATTCCCCCAGTACATATATAATAGTAGTA [XGTACX_site7927] | 9.435 ± 0.007 |
| AATAAAAAAATAAAATGTACATACAAATAAATAAAT [XGTACX_site5153] | 7.8 ± 0.67 |
| TGCAACAAAATAAACACACACACACCCCCACAAAAA [CACACA_site3388] | 10.2 ± 0.26 |
| TATTTTAATGAAGCATTTAAGGGAAAAAAAAAAAAA [TGCATGCA_negctrl_site606] | 8.22 ± 0.64 |
| GTATACCAACATATTATACACACCTTTATATTTTTT [CACACA_site2153] | 7.88 ± 0.7 |
| ATAAGATGATGGAACTGTAATATATATATATATATA [CACACA_negctrl_site839] | 9.23 ± 0.38 |
| TTTAAGAGTTGCACACGTACAAAAAAAAAAAAAAAA [XGTACX_site7406] | 8.545 ± 0.064 |
| TTGTATACATAAAATGGTACAGAATATATAATTCTA [XGTACX_site7236] | 7.45 ± 0.61 |
| TTAATTAAAATTTATACATGCATAAAAGAAATACAC [TGCATGCA_site537] | 8.62 ± 0.37 |
| ATTACATGTTACTTAACACACATCTGGTGAAATAAT [CACACA_site171] | 7.91 ± 0.54 |
| GTAATGAAACATTGCACACATATAATAATATAATAT [CACACA_site1422] | 8.685 ± 0.035 |
| ATTTTTTTCTTTTCTTTTTTCTTTTTTTTTTTTGGT [CACACA_negctrl_site1146] | 7.46 ± 0.76 |
| TTTACGCTATAGGAGAGTACTTATAAAATCCTGTGT [XGTACX_site2364] | 7.7 ± 0.55 |

| Sequence | gcPBM binding intensity (ln) |
| --- | --- |
| TTCATATATTTTAAAGCATGCATTCATCTTATAGTT [TGCATGCA_site800] | 7.92 ± 0.59 |
| AGACGAAAATAATAAAGTACTAAAAAAAAAAAAAAA [XGTACX_site927] | 8.01 ± 0.54 |
| TACAAAATATATATGACACACACAAAAAAAGTATAT [CACACA_site8455] | 7.89 ± 0.69 |
| TATTTTTCCATTGGGGGTACATGTGTTATATTTATT [XGTACX_site5914] | 9.865 ± 0.049 |
| ATATATATGCATATATGTACTTAAAATATAAAGGCA [XGTACX_site3256] | 7.93 ± 0.49 |
| ATTTTTTCTGTCTTAATTGGACCCACTGCAAATGGG [CACACA_negctrl_site1158] | 8.12 ± 0.15 |
| ATAATACAAAAAAAAAAAAAAAATAAAATAATAAAA [GTGCAC_negctrl_site722] | 7.49 ± 0.2 |
| TACCTAAATAAATGGACACACACATATATATATATA [CACACA_site8407] | 9.39 ± 0.43 |
| TTATAGCCTGTGAAGAGTACATTTTTATTTTTTATT [XGTACX_site4105] | 7.71 ± 0.55 |
| AAGTAATACAACACGCACATATATATATATATATAT [GTGCAC_negctrl_site89] | 9.37 ± 0.48 |
| TATTTTTAAATATAAAGTACTTATATTAACTACGAA [XGTACX_site1524] | 7.71 ± 0.3 |
| TCTGTAGTTTTTTACAGTACTTTTAGGTAATACATA [XGTACX_site7417] | 7.59 ± 0.33 |
| TTCTTGTATTTTCATAGTACATATAATGTCGTGTTA [XGTACX_site7714] | 7.84 ± 0.52 |
| AAAACACCCAAACACACACACACATATATATATATA [CACACA_site9119] | 9.43 ± 0.42 |
| ACCTCTTTGAAATATACACACTAAACATATCAACTT [CACACA_site5372] | 8.13 ± 0.82 |
| TACATAGAGTTTGTTTGTACTCATATGCGTAAATTC [XGTACX_site4810] | 7.91 ± 0.33 |
| AGAAAAAAAATATACACACATACGATCATACATATG [CACACA_site2171] | 7.62 ± 0.57 |
| CATTATGTCATAAATGCACACATATACATTGTTTTG [CACACA_site8118] | 9.635 ± 0.007 |
| AATAAATTATTTATTGCATGTAATATGAATATTTTT [TGCATGCA_site798] | 7.66 ± 0.42 |
| TAATGTATGAAATAAACACACAAGTAAGTACATAAA [CACACA_site2451] | 8.15 ± 0.3 |
| ATATATTTTATTCCTATATATATATATATATATATA [GTGCAC_negctrl_site556] | 9.18 ± 1 |
| TATATTACTTAAAATACACACCATGGAAAAGTTTTA [CACACA_site5443] | 7.55 ± 0.59 |

| Sequence | gcPBM binding intensity (ln) |
| --- | --- |
| ATTATTTTTCTATGTGTGCACGTGTGGAATGTGTCT [GTGCAC_site9507] | 10.81 ± 0.064 |
| TTCTGAACAAAATTATATATTTATTTTTATTTTCAT [CACACA_negctrl_site422] | 7.46 ± 0.56 |
| TTTTTATTTTTTTTATGTACACAAATGATATACATA [XGTACX_site5910] | 8.13 ± 0.4 |
| AGGATACACGGACACACACACATATAGATTTATATA [CACACA_site6552] | 8.14 ± 0.2 |
| TTTCTTTTTTTTTTTTTTTCTGGCTTTTTCTCTTTT [TGCATGCA_negctrl_site599] | 7.61 ± 0.33 |
| TAAAAATGTAGACACACACACATATATATATTTAAT [CACACA_site1528] | 7.75 ± 0.4 |
| ATATATATAATATAGGTGCACTACTTATTTAAAAAA | 11.6 ± 0.2 |
| AAATAATTAGCTATTTGTACATATATACATATTTAT [XGTACX_site4652] | 7.63 ± 0.57 |
| TTAATAACAAAATAAACACACATATATAAATCCACA [CACACA_site1590] | 7.97 ± 0.44 |
| AAAATGAATATAATGACGCACACTTAAAATTGTTAA [CACACA_site2509] | 7.84 ± 0.45 |
| TGTGTTAAATGTAATAGTGAATAAATAATTTTAACA [TGCATGCA_negctrl_site161] | 7.67 ± 0.35 |
| TTTTTTAGAAAAAGTTGTACTTTTTTTTTTTTTTTT [XGTACX_site535] | 8.62 ± 0.4 |
| TTTTTACGTAAACAAAATAATTATATAATATTATTT [CACACA_negctrl_site1769] | 7.62 ± 0.35 |
| TAAACAAATAAATAAACACACAATATATGTATATAT [CACACA_site3803] | 7.59 ± 0.54 |
| CGTAAATTTTTTAAAAGTACAAAAAGATACGAGAAA [XGTACX_site8722] | 7.92 ± 0.45 |
| ATATATTAGGGCAAATTTTCTGACATTACATCAGTC [CACACA_negctrl_site1166] | 7.79 ± 0.71 |
| ATATTTATATTTGTATGTACTTAAGTTTGTATGTAT [XGTACX_site3608] | 7.88 ± 0.42 |
| TTTTTAATTCAAAAAATAATATATTATATTTCAAAT [CACACA_negctrl_site737] | 7.38 ± 0.48 |
| TATTTTTCTTTTTTCTGTACTCACACAAATAGAAGG [XGTACX_site7329] | 8.06 ± 0.21 |
| ATACAACATATATATACACACATATAATAATAATAA [CACACA_site3367] | 7.97 ± 0.45 |
| GAATAAAAAATATATGTGCACATATAAACTTAAAAT [GTGCAC_site9554] | 9.72 ± 0.23 |
| TAATATAAAGGAAAAGAAAAGAAAAGAATATACAAT [CACACA_negctrl_site1369] | 7.54 ± 0.59 |

| Sequence | gcPBM binding intensity (ln) |
| --- | --- |
| AAACCAATAAAAAACTGTACAAAAATTATATGAGAT [XGTACX_site1269] | 7.84 ± 0.71 |
| AAAAAACTTATAATCACACATATGATTAAATATTAA [CACACA_site4956] | 7.31 ± 0.44 |
| ATAGGACCTATGTGCCCATGGGTACATTAAAAAAAA [CACACA_negctrl_site1465] | 7.97 ± 0.54 |
| AAAAAAAAAAAAAAAATACACACGTGAATGTATTGT [CACACA_site1320] | 8.64 ± 0.51 |
| AAATAACACATATATACACACATATAAATATAATAT [CACACA_site2692] | 7.8 ± 0.45 |
| TTTGTTTTAAATCGAAGTACACATAATTATATTTTA [XGTACX_site1541] | 7.72 ± 0.19 |
| AATTATTTTTTGTATGAACACACAACTTAATTATGA [CACACA_site8774] | 7.62 ± 0.57 |
| TTGAATGTAGTTAAATGTACATGTAATATATAAAAA [XGTACX_site1250] | 8.03 ± 0.54 |
| TATATATATACATAATGTACATTTTATAAATTTACA [XGTACX_site5283] | 8.66 ± 0.24 |
| ATATTTTAAATGTTATGTACACATTTGTTGTTTACA [XGTACX_site7353] | 7.93 ± 0.28 |
| AATATTATTATTATTACACACACAATTATATTTACC [CACACA_site8061] | 7.93 ± 0.38 |
| ATTTTTTTTTTTATTTTCTTTGAGATTATCTTAATT [CACACA_negctrl_site1209] | 7.55 ± 0.69 |
| TTAATTTGTTCTTACACACACATATATATATATTTA [CACACA_site1185] | 8.11 ± 0.37 |
| ACTACCTATATTTAAGCATGCAAAAAATAAAAATAT [TGCATGCA_site238] | 8.04 ± 0.63 |
| ATAAATTGTTCTTTTTGTGTAAACAGAATATTAAAA [CACACA_negctrl_site1022] | 7.55 ± 0.54 |
| TGTACAACAATTTTTGCACACACCAAAACATAAAAT [CACACA_site1598] | 8.95 ± 0.13 |
| AGAAAAGAAATTAAATGTACACAACTATAACCAAAT [XGTACX_site8084] | 8.28 ± 0.49 |
| AAAAAAAAAAAATAAAGTACTAAATAATACATTATA [XGTACX_site6203] | 7.42 ± 0.13 |
| TTTTATAAAATATAATATAATAATATATGTATAATA [CACACA_negctrl_site1788] | 7.42 ± 0.49 |
| ATATATCTACAAATATGTACACACACACATATATAT [XGTACX_site1075] | 8.12 ± 0.53 |
| AAAAAAAAAAAAAAAAAAAAAAAAATCACACATTGG [TGCATGCA_negctrl_site412] | 9.71 ± 0.085 |
